Reference: the supplement of paper PMC8728848
Some of the results follow.

Assays:
Assay in all cases: glycan array binding signal (z-score within array); higher = stronger binding
Details in all cases: glycan notation: IUPAC condensed, linker removed
[1] = target: Fuc(a1-2)Gal(b1-4)GlcNAc(b1-3)Gal(b1-4)GlcNAc(b1-3)Gal(b1-4)GlcNAc
Outline: (§1)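 The binding signal is a Z-score computed within each array and averaged over linkers. Arrays of the same protein sequence at different concentrations or buffers were also averaged together. Data originate from 3228 arrays in the Consortium for Functional Glycomics database, kept only where the protein sequence was available.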

[2] = target: Fuc(a1-2)Gal(b1-4)GlcNAc(b1-3)GalNAc
Outline: as §1

[3] = target: Fuc(a1-2)Gal(b1-4)GlcNAc(b1-3)[Fuc(a1-2)Gal(b1-4)GlcNAc(b1-6)]GalNAc
Outline: as §1

[4] = target: Fuc(a1-2)Gal(b1-4)GlcNAc(b1-6)GalNAc
Outline: as §1

[5] = target: Fuc(a1-2)Gal(b1-4)GlcNAc6S
Outline: as §1

[6] = target: Fuc(a1-2)Gal(b1-4)[Fuc(a1-3)]GlcNAc
Outline: as §1

[7] = target: Fuc(a1-2)Gal(b1-4)[Fuc(a1-3)]GlcNAc(b1-2)Man(a1-3)[Fuc(a1-2)Gal(b1-4)[Fuc(a1-3)]GlcNAc(b1-2)Man(a1-6)]Man(b1-4)GlcNAc(b1-4)GlcNAc
Outline: as §1

[8] = target: Fuc(a1-2)Gal(b1-4)[Fuc(a1-3)]GlcNAc(b1-2)Man(a1-6)[Fuc(a1-2)Gal(b1-4)[Fuc(a1-3)]GlcNAc(b1-2)Man(a1-3)]Man(b1-4)GlcNAc(b1-4)[Fuc(a1-6)]GlcNAc
Outline: as §1

[9] = target: Fuc(a1-2)Gal(b1-4)[Fuc(a1-3)]GlcNAc(b1-2)[Fuc(a1-2)Gal(b1-4)[Fuc(a1-3)]GlcNAc(b1-4)]Man(a1-3)[Fuc(a1-2)Gal(b1-4)[Fuc(a1-3)]GlcNAc(b1-2)Man(a1-6)]Man(b1-4)GlcNAc(b1-4)GlcNAc
Outline: as §1

[10] = target: Fuc(a1-2)Gal(b1-4)[Fuc(a1-3)]GlcNAc(b1-3)Gal(b1-4)[Fuc(a1-3)]GlcNAc
Outline: as §1

[11] = target: Fuc(a1-2)Gal(b1-4)[Fuc(a1-3)]GlcNAc(b1-3)Gal(b1-4)[Fuc(a1-3)]GlcNAc(b1-3)Gal(b1-4)[Fuc(a1-3)]GlcNAc
Outline: as §1

[12] = target: Fuc(a1-2)Gal(b1-4)[Fuc(a1-3)]GlcNAc(b1-3)GalNAc
Outline: as §1

[13] = target: Fuc(a1-2)Gal(b1-4)[Fuc(a1-3)]GlcNAc(b1-3)[Neu5Ac(a2-6)Gal(b1-4)GlcNAc(b1-6)]Gal(b1-4)Glc
Outline: as §1

[14] = target: Fuc(a1-2)Gal6S(b1-3)GlcNAc
Outline: as §1

[15] = target: Fuc(a1-2)Gal6S(b1-3)GlcNAc6S
Outline: as §1

[16] = target: Fuc(a1-2)Gal6S(b1-4)Glc
Outline: as §1

[17] = target: Fuc(a1-2)Gal6S(b1-4)Glc6S
Outline: as §1

[18] = target: Fuc(a1-2)Gal6S(b1-4)GlcNAc
Outline: as §1

[19] = target: Fuc(a1-2)[Gal(a1-3)]Gal
Outline: as §1

[20] = target: Fuc(a1-2)[Gal(a1-3)]Gal(b1-3)GalNAc
Outline: as §1

[21] = target: Fuc(a1-2)[Gal(a1-3)]Gal(b1-3)GlcNAc
Outline: as §1

[22] = target: Fuc(a1-2)[Gal(a1-3)]Gal(b1-3)GlcNAc(b1-2)Man(a1-3)[Fuc(a1-2)[Gal(a1-3)]Gal(b1-3)GlcNAc(b1-2)Man(a1-6)]Man(b1-4)GlcNAc(b1-4)GlcNAc
Outline: as §1

[23] = target: Fuc(a1-2)[Gal(a1-3)]Gal(b1-3)GlcNAc(b1-2)Man(a1-3)[Fuc(a1-2)[Gal(a1-3)]Gal(b1-3)GlcNAc(b1-2)Man(a1-6)]Man(b1-4)GlcNAc(b1-4)[Fuc(a1-6)]GlcNAc
Outline: as §1

[24] = target: Fuc(a1-2)[Gal(a1-3)]Gal(b1-3)GlcNAc(b1-3)GalNAc
Outline: as §1

[25] = target: Fuc(a1-2)[Gal(a1-3)]Gal(b1-4)Glc
Outline: as §1

[26] = target: Fuc(a1-2)[Gal(a1-3)]Gal(b1-4)GlcNAc
Outline: as §1

[27] = target: Fuc(a1-2)[Gal(a1-3)]Gal(b1-4)GlcNAc(b1-2)Man(a1-3)[Fuc(a1-2)[Gal(a1-3)]Gal(b1-4)GlcNAc(b1-2)Man(a1-6)]Man(b1-4)GlcNAc(b1-4)GlcNAc
Outline: as §1

[28] = target: Fuc(a1-2)[Gal(a1-3)]Gal(b1-4)GlcNAc(b1-2)Man(a1-3)[Fuc(a1-2)[Gal(a1-3)]Gal(b1-4)GlcNAc(b1-2)Man(a1-6)]Man(b1-4)GlcNAc(b1-4)[Fuc(a1-6)]GlcNAc
Outline: as §1

[29] = target: Fuc(a1-2)[Gal(a1-3)]Gal(b1-4)GlcNAc(b1-3)GalNAc
Outline: as §1

[30] = target: Fuc(a1-2)[Gal(a1-3)]Gal(b1-4)GlcNAc(b1-6)GalNAc
Outline: as §1

[31] = target: Fuc(a1-2)[Gal(a1-3)]Gal(b1-4)[Fuc(a1-3)]Glc
Outline: as §1

[32] = target: Fuc(a1-2)[Gal(a1-3)]Gal(b1-4)[Fuc(a1-3)]GlcNAc
Outline: as §1

[33] = target: Fuc(a1-2)[Gal(a1-3)]Gal(b1-4)[Fuc(a1-3)]GlcNAc(b1-3)GalNAc
Outline: as §1

[34] = target: Fuc(a1-2)[Gal(a1-4)]Gal(b1-4)GlcNAc
Outline: as §1

[35] = target: Fuc(a1-2)[GalNAc(a1-3)]Gal
Outline: as §1

[36] = target: Fuc(a1-2)[GalNAc(a1-3)]Gal(b1-3)GalNAc(a1-3)[Fuc(a1-2)]Gal(b1-4)GlcNAc
Outline: as §1

[37] = target: Fuc(a1-2)[GalNAc(a1-3)]Gal(b1-3)GlcNAc
Outline: as §1

[38] = target: Fuc(a1-2)[GalNAc(a1-3)]Gal(b1-3)GlcNAc(b1-2)Man(a1-3)[Fuc(a1-2)[GalNAc(a1-3)]Gal(b1-3)GlcNAc(b1-2)Man(a1-6)]Man(b1-4)GlcNAc(b1-4)GlcNAc
Outline: as §1

[39] = target: Fuc(a1-2)[GalNAc(a1-3)]Gal(b1-3)GlcNAc(b1-2)Man(a1-3)[Fuc(a1-2)[GalNAc(a1-3)]Gal(b1-3)GlcNAc(b1-2)Man(a1-6)]Man(b1-4)GlcNAc(b1-4)[Fuc(a1-6)]GlcNAc
Outline: as §1

[40] = target: Fuc(a1-2)[GalNAc(a1-3)]Gal(b1-3)GlcNAc(b1-3)GalNAc
Outline: as §1

[41] = target: Fuc(a1-2)[GalNAc(a1-3)]Gal(b1-3)GlcNAc(b1-6)GalNAc
Outline: as §1

[42] = target: Fuc(a1-2)[GalNAc(a1-3)]Gal(b1-4)Glc
Outline: as §1

[43] = target: Fuc(a1-2)[GalNAc(a1-3)]Gal(b1-4)GlcNAc
Outline: as §1

[44] = target: Fuc(a1-2)[GalNAc(a1-3)]Gal(b1-4)GlcNAc(b1-2)Man(a1-3)[Fuc(a1-2)[GalNAc(a1-3)]Gal(b1-4)GlcNAc(b1-2)Man(a1-6)]Man(b1-4)GlcNAc(b1-4)GlcNAc
Outline: as §1

[45] = target: Fuc(a1-2)[GalNAc(a1-3)]Gal(b1-4)GlcNAc(b1-2)Man(a1-3)[Fuc(a1-2)[GalNAc(a1-3)]Gal(b1-4)GlcNAc(b1-2)Man(a1-6)]Man(b1-4)GlcNAc(b1-4)[Fuc(a1-6)]GlcNAc
Outline: as §1

B1: OrfX (Escherichia coli), Q9X4B6_ECOLX (protein)
chain: MIKIARIAVTLGLLSSLGAQAYAAGLVVNDNDLRNDLAWLSDRGVIHLSLSTWPLSQEEIARALKKAKPSYSSEQVVLARINQRLSALKADFRVTGYTSTDQPGTPQGFGQTQPADNSLGLAFNNSGEWWDVHLQGNVEGGERISNGSRFNANGAYGAVKFWNQWLSFGQVPQWWGPGYEGSLIRGDAMRPMTGFLMQRAEQAAPETWWLRWVGPWQYQISASQMNQYTAVPHAKIIGGRFTFTPFQSLELGASRIMQWGGEGRPQSFSSFWDGFTGHDNTGTDNEPGNQLAGFDFKFKLEPTLGWPVSFYGQMVGEDESGYLPSANMFLGGVEGHHGWGKDTVNWYVEAHDTRTNMSRTNYSYTHHIYKDGYYQQGYPLGDAMGGDGQLIAGKVELITEDNQRWSTRLVYAKVNPENQSINKAFPHADTLKGLQLGWSGDVYQSVRLNTSLWYTNANNSDSDDVGASAGIEIPFSL
B1 was tested, and the “glycan array binding signal (z-score)” value [1] was -0.266, the “glycan array binding signal (z-score)” value [2] was -0.189 and the “glycan array binding signal (z-score)” value [3] was 0.429. For the same binder, the “glycan array binding signal (z-score)” value [4] was -0.061, the “glycan array binding signal (z-score)” value [5] was -0.226 and the “glycan array binding signal (z-score)” value [6] was 0.036. For the same binder, the “glycan array binding signal (z-score)” value [7] was 0.202, the “glycan array binding signal (z-score)” value [8] was 0.689 and the “glycan array binding signal (z-score)” value [9] was -0.108. The “glycan array binding signal (z-score)” value [10] was -0.147, the “glycan array binding signal (z-score)” value [11] was -0.02 and the “glycan array binding signal (z-score)” value [12] was 4.3. The “glycan array binding signal (z-score)” value [13] was -0.235, the “glycan array binding signal (z-score)” value [14] was -0.184 and the “glycan array binding signal (z-score)” value [15] was 0.634. The “glycan array binding signal (z-score)” value [16] was -0.214, the “glycan array binding signal (z-score)” value [17] was 0.009 and the “glycan array binding signal (z-score)” value [18] was -0.201. The “glycan array binding signal (z-score)” value [19] was -0.329, the “glycan array binding signal (z-score)” value [20] was -0.162 and the “glycan array binding signal (z-score)” value [21] was -0.133. For the same binder, the “glycan array binding signal (z-score)” value [22] was -0.295, the “glycan array binding signal (z-score)” value [23] was -0.247 and the “glycan array binding signal (z-score)” value [24] was -0.143. For the same binder, the “glycan array binding signal (z-score)” value [25] was -0.382, the “glycan array binding signal (z-score)” value [26] was -0.179 and the “glycan array binding signal (z-score)” value [27] was -0.19. The “glycan array binding signal (z-score)” value [28] was -0.047, the “glycan array binding signal (z-score)” value [29] was -0.295 and the “glycan array binding signal (z-score)” value [30] was -0.144. The “glycan array binding signal (z-score)” value [31] was -0.132, the “glycan array binding signal (z-score)” value [32] was -0.297 and the “glycan array binding signal (z-score)” value [33] was -0.091. For the same binder, the “glycan array binding signal (z-score)” value [34] was -0.32, the “glycan array binding signal (z-score)” value [35] was -0.116 and the “glycan array binding signal (z-score)” value [36] was -0.154. The “glycan array binding signal (z-score)” value [37] was 0.002, the “glycan array binding signal (z-score)” value [38] was -0.281 and the “glycan array binding signal (z-score)” value [39] was -0.266. For the same binder, the “glycan array binding signal (z-score)” value [40] was -0.109, the “glycan array binding signal (z-score)” value [41] was -0.339 and the “glycan array binding signal (z-score)” value [42] was -0.196. For the same binder, the “glycan array binding signal (z-score)” value [43] was -0.165, the “glycan array binding signal (z-score)” value [44] was -0.185 and the “glycan array binding signal (z-score)” value [45] was -0.32.
